Laboratory results published in the supplement of paper PMC3334620.
The full ranking holds about 33,000 sequences; the median of “E-score (-0.5 to 0.5)” is about -0.036, and the highest 2% start at about 0.37. The list shows a part of the results.

Target: T1, Yer064c (UniProt P40041)
T1 sequence: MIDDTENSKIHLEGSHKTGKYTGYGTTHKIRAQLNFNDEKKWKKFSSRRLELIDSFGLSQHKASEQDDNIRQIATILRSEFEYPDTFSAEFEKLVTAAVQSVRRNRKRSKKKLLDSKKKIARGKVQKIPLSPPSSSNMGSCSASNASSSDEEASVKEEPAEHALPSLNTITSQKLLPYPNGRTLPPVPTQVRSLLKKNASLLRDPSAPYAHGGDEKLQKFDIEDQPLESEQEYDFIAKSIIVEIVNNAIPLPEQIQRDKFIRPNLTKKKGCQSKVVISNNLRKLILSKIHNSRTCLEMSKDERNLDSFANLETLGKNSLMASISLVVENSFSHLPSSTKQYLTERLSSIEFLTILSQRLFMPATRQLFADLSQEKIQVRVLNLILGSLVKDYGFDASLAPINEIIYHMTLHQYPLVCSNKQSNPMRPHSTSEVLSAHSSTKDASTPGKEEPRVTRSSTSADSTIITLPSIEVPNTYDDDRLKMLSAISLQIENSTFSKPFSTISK
Assay: PBM E-score (8-mer binding enrichment) (E-score (-0.5 to 0.5)); higher = stronger / more preferred TF binding; most listed sequences are background and not binding sites
Details: protein concentration: 200 nM; construct: GST-full length
Protocol: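 Universal 'all 10-mer' protein binding microarrays (Agilent AMADID 015681) probed with GST-tagged S. cerevisiae TFs (full-length or DBD) made by in vitro transcription/translation (PURExpress), about 100-200 nM. Bound TF was detected with fluorescent anti-GST. Each ungapped 8-mer (which stands for itself and its reverse complement) is scored by the PBM enrichment score (E-score), a modified Wilcoxon-Mann-Whitney statistic from -0.5 to +0.5, computed with the Universal PBM Analysis Suite. Scale: above 0.35 generally sequence-specific binding.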

Sequence | PBM E-score
GTCAAAAC | 0.256
GATAGTAA | 0.149
TATGTACA | -0.0169
AAAGCCAC | -0.107
AGGCCCGC | -0.178
CCCACTAG | -0.284
GTGAGCTA | 0.0552
AAGAAATC | -0.0761
CGCAGGTC | -0.302
CCCCGTGA | 0.0132
GAGAATAA | 0.13
AAACTAGC | -0.145
GGATAAAC | -0.0274
AACCTGCA | -0.129
GGTTACAA | 0.121
AACGGGCG | -0.205
AATACATA | 0.0284
AAAGCACA | 0.0818
GGGTTTAC | -0.116
TATAAATA | 0.0631
ATACCTAA | -0.0224
ATACGCCG | -0.239
AGCGAGTA | 0.115
GGATGGCC | -0.288
AGTGCCAA | -0.102

Sequence | PBM E-score
GATCTCAA | 0.0495
ACTGGCAC | -0.188
CTGAGACC | 0.0557
AGAGCGAA | 0.189
GAGGGGTA | -0.0967
GCTCATGA | 0.196
CATTAGAC | 0.0825
CGGCTACC | -0.0934
AATGCGTC | -0.125
CAGAGATA | 0.0363
GTTCCTTA | -0.137
ACGGGAAG | -0.109
CAGAGTAA | -0.0541
AGAGCCTC | -0.263
CTGGCTCC | -0.182
TCATCGCA | 0.291
ACTAGCCC | 0.14
AATAGTGA | 0.184
AGGGAGTG | -0.175
AGCACGTG | 0.0502
AGAGGCAG | -0.127
AACTGTAT | 0.101
CCTCATAG | -0.00122
GCTAGTAC | -0.0099
CCAGGAAG | -0.101

Sequence | PBM E-score
TATCCTCA | -0.0737
AGGCAACT | 0.045
AACGAAAT | -0.028
AAGGGACC | -0.263
GCGGGTAC | 0.0539
ACGGTAAG | -0.187
ACAACACA | 0.108
CAACCGAA | 0.112
AGAATGGC | -0.0575
ACAGCCAT | -0.0265
AATGGGGG | -0.354
AGTTCGAT | -0.0556
AACTCCGT | -0.105
AAGAAAGC | -0.105
CACGCACG | -0.183
ACAGAGAT | -0.00825
ATTTTGCC | -0.0975
ATTGGGTG | -0.00934
ACCGTGGG | -0.157
TGCAGTAA | 0.0323
CATCGTGG | 0.0139
GTCCGGAA | -0.0321
ACTAGGCA | -0.0739
AGGTCGCA | -0.108
AGGAGGGA | -0.156

Sequence | PBM E-score
GTTTCAAA | 0.0649
AGATAAAT | 0.0803
GACACCAC | -0.104
ACATACTC | 0.157
AATGTAGC | -0.211
CGTAGTGA | 0.0979
ACGGCAGC | -0.161
GTCACTCA | 0.334
CAGGCGGA | 0.0674
TAAAGAGA | 0.108
ACTGCGTG | 0.0677
GCAATCTA | -0.136
TGATAACA | 0.0404
CAGCGATC | -0.12
GCAGCTCA | -0.0529
CCACCTGA | 0.089
GGAACGCC | -0.27
ACGGCCTG | -0.12
AAAATCAA | 0.101
AACACCGC | -0.177
AGTTCGGA | -0.0233
ATCACTAC | 0.135
TGTCTTAA | -0.0134
ATTTGCAA | 0.0994
CTGGTCTC | -0.044

Sequence | PBM E-score
GAACTGAC | -0.0132
ACGTTGCC | -0.21
ACCCATTG | -0.015
GCAACCAC | 0.0872
AGTTGGAG | -0.0979
ACAACGCA | -0.114
CCACTAAA | -0.0544
AATACCCC | -0.434
CGCCTCAG | 0.0344
ATTTGATC | 0.0453
CCTATCTA | -0.0991
ATGGAATA | -0.193
AAAACCAG | 0.131
CCTAGAAC | -0.117
TAATCCCA | -0.0399
ATCCGTCG | -0.269
GATTGGAC | -0.113
ACGGTGAT | 0.184
AGCAACAA | 0.101
CAACGCGC | 0.0416
AATATCTC | -0.161
GTCCTCGA | 0.197
ACTCATTA | 0.372
ACAGAGCA | -0.0761
ATATTGCG | -0.172

Sequence | PBM E-score
CTCCGGGA | -0.0772
AGATGCGA | -0.0203
CCAAGAGA | 0.0458
CATCTGCG | -0.141
CGTTTTGA | 0.16
AGTTGAAA | 0.0188
CCAGTGGA | -0.146
CCGACAAG | -0.0734
ATATGTGA | 0.143
CCCTCTCC | -0.104
CTTCACAC | 0.026
ATAGTAGG | 0.042
AGGTTCAA | 0.12
CTGTGCGC | -0.198
TACCTAAA | -0.0585
GGGCGGAC | -0.227
TGGCACAA | -0.0821
ATAACTGA | 0.107
GTTGAAAC | 0.0907
ACATTACT | -0.0427
GAGTAATA | 0.197
AGACTCTC | 0.334
CCATTAAC | 0.0891
TCGTGGAA | 0.0989
CGAGATTA | 0.237

Sequence | PBM E-score
AAGAAGCC | -0.146
AACGTCAT | 0.127
AGTTAGGC | -0.0789
AGCATCAA | -0.0111
ACGTCCGG | -0.217
CACTTGTC | -0.132
GGGCTTTA | -0.14
ACGCTGAA | -0.0153
GCGCCTCC | -0.313
TAACTCCA | 0.157
CTAGCCGA | -0.156
AAGACCGT | -0.144
GTCCAACA | -0.0169
CTTATGGC | 0.0753
CTCGCTGC | -0.0548
AGTCCCGA | 0.00924
ACCTAAGG | -0.308
ATGGGATG | -0.112
CTGGCACA | -0.202
ATTTTCGC | -0.131
AATAGCAC | -0.194
GCGTAGTA | -0.118
